# Results from paper PMC4336329 (PLoS ONE, 2015).
# Among all 310,000 compounds or so, about 2,200 (0.71%) showed an effect of 50% or more. The effect is printed as a negative number. The list shows a part of the results.
# Target: human ether-à-go-go-related gene (hERG) potassium channel (human, UniProt Q12809)
# Assay: primary screen, population patch clamp on CHO cells stably expressing hERG
# human ether-à-go-go-related gene (hERG) potassium channel, sequence (Q12809 whole entry, looked up): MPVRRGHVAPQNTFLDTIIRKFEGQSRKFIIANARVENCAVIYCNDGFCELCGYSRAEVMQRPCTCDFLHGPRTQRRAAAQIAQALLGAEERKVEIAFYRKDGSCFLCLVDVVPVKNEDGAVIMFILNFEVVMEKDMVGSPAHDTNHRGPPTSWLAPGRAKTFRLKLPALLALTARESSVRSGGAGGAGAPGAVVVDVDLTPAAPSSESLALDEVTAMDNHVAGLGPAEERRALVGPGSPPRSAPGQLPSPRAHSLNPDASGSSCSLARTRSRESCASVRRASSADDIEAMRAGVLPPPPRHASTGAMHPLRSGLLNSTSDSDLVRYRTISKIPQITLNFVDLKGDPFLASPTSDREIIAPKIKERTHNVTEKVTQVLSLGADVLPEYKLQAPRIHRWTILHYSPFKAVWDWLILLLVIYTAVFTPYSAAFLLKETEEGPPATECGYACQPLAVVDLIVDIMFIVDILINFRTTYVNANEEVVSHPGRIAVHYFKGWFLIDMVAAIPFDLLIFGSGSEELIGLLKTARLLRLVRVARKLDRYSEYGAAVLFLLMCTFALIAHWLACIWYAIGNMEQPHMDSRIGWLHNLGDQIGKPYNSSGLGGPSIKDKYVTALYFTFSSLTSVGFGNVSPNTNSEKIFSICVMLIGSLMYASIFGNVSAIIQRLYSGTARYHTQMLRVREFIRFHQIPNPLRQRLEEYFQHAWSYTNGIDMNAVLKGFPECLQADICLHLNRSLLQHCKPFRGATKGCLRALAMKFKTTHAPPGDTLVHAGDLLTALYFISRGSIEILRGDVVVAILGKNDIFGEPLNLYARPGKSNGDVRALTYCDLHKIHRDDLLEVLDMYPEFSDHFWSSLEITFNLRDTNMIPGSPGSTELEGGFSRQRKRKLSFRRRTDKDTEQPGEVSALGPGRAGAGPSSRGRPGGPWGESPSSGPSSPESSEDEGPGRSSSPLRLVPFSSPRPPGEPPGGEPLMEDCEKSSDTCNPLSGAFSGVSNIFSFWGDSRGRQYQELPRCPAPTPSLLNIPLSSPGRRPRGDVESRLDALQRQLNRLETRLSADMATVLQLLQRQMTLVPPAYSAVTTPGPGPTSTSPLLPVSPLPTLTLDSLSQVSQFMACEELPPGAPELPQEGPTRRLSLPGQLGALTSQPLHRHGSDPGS
row,Structure (SMILES),"hERG current change (%, negative = inhibition) at 1uM"
1,Cc1ccc(-c2nnc(-c3ccc(Br)cc3)o2)o1,6.38%
2,Cc1oc(C(C)(C)C)cc1C(=O)NCC(=O)NCC(=O)O,7.69%
3,CC(=O)C(Cc1ccccc1)NC(=O)CN1CCc2ccccc2C1 (stereo not drawn),1.44%
4,COc1cccc(C2Oc3ccccc3C3CC(c4cccs4)=NN32)c1 (stereo not drawn),13.9%
5,CCc1ccc(N(C(=O)CNC(=O)c2ccco2)C(C(=O)NC2CCCC2)c2ccncc2)cc1 (stereo not drawn),5.85%
6,Cc1ccccc1NC(=O)c1cccnc1,18.2%
7,CCCNS(=O)(=O)c1ccc(CCC(=O)NCc2cccnc2)cc1,22.5%
8,Cn1c(=O)n(C)c2cc(S(=O)(=O)N3CCCCC3)ccc21,15.1%
9,CCOc1cccc(-c2c(C(=O)N/N=C/c3cccs3)nnn2-c2nonc2N)c1,15.1%
10,CCOc1ccc(S(=O)(=O)N(CC)CC(=O)NCc2cccnc2)cc1C,4.6%
11,Cc1cccc(NCC(O)Cn2cnc3c2c(=O)n(C)c(=O)n3C)c1 (stereo not drawn),6.47%
12,COc1ccnc(Oc2ccc(C)cc2)c1C#N,7.87%
13,COc1nc(NCCc2ccc(OC)c(OC)c2)nc(OC)n1,-5.49%
14,CNC(=O)CSc1nnc(-c2cccnc2)n1-c1ccc(C)cc1,15.1%
15,COc1cccc(C=Nc2ccccc2C(=O)Nc2ccccc2)c1O,4.5%
16,CCN1CCN(C(c2cc(OC)c(OC)c(OC)c2)c2nnnn2C(C)C)CC1.Cl (stereo not drawn),9.19%
17,COc1ccccc1N1CCN(S(=O)(=O)c2ccc3c(c2)NC(=O)CS3)CC1,9.4%
18,O=C(Nc1ccc(-c2ccccc2)cc1)c1ccc2c(c1)S(=O)(=O)c1ccccc1C2=O,6.62%
19,C=C(C)CN(CC)C(=O)CSc1ccc(S(=O)(=O)N2CCN(Cc3ccccc3)CC2)cn1,-8.52%

row,Structure (SMILES),"hERG current change (%, negative = inhibition) at 1uM"
1,CC(C)(C)NC(=O)Cn1nnc(-c2cccs2)n1,4.77%
2,O=c1c2c(ncn1Cc1ccccc1)nc1n2CCC1,8.46%
3,Nc1ccc(Nc2nc(-c3cc4ccccc4oc3=O)cs2)cc1,6.2%
4,CCOC(=O)c1ccc(-n2c(CN(CC)CC)nc3ccc([N+](=O)[O-])cc3c2=O)cc1,9.72%
5,CCOC(=O)C1CCN(C(=O)COc2ccc(S(=O)(=O)NC(C)C)cc2Cl)CC1,-6.69%
6,Cc1ccc(CNC(=O)C(=O)NCCC2CCCCN2S(=O)(=O)c2ccc(C)cc2)cc1 (stereo not drawn),4.51%
7,O=C(NC1CCCCC1)N1CCN(C2CCCCC2)CC1,5.11%
8,CCCCCCCCCCCCN1C(=O)CSC1c1cccnc1 (stereo not drawn),14.5%
9,C=CCNC(=O)CC(=O)N/N=C/c1cccc(C)c1,9.72%
10,O=C(CSc1nncs1)Nc1ccc(Cl)cc1C(F)(F)F,14.3%
11,COc1ccc(Br)cc1CNCCc1cccc(Cl)c1.O=C(O)C(=O)O,0.403%
12,O=C(c1ccc2c(c1)C(=O)N(Cc1ccco1)C2O)N1CCOCC1 (stereo not drawn),16.8%
13,N#Cc1ccccc1S(=O)(=O)N1CCN(C(=O)c2cn(-c3ccccc3)nc2-c2cccnc2)CC1,-27.7%
14,CCOC(=O)C1=C2SCC(=O)N2C(N)=C(C#N)C1,1.92%
15,CC(=O)COc1ccc2c(-c3ccccc3)cc(=O)oc2c1C,8.18%
16,O=C1c2ccccc2C(=O)N1Cc1cc(-c2ccc(Cl)cc2)no1,12.3%
17,Cc1ccc(OCCn2cccn2)c(C)c1,6.35%
18,Cc1ccc(C)c(NC(=O)CN(C)C(=O)c2oc3c(Cl)cccc3c2C)c1,-4.63%
19,Cl.Fc1ccc(Cn2nnnc2C(c2ccc(Cl)cc2)N2CCSCC2)cc1 (stereo not drawn),12.5%

row,Structure (SMILES),"hERG current change (%, negative = inhibition) at 1uM"
1,CC1Cc2ccccc2N1S(=O)(=O)c1cccc(C(=O)N2CC(=O)Nc3ccccc32)c1 (stereo not drawn),-5.32%
2,CCOc1ccc(C(C)=O)cc1COC(=O)CCc1cc(OC)c(OC)c(OC)c1,10.5%
3,COc1ccccc1N(CC(=O)NCCSc1ccccc1)S(C)(=O)=O,1.1%
4,Cc1ccc(C(=O)NCC(=O)OCC(=O)c2ccc(Cl)s2)cc1,8.96%
5,Cc1ccc(OCc2cc(C(=O)N3CCc4sccc4C3)no2)cc1C,10.2%
6,CCc1ccc(Nc2nnc(SCC(=O)NC(=O)c3cccn3C)s2)cc1,10.2%
7,CN(C)c1ccc(/C=C(/NC(=O)c2ccccc2)C(=O)NCCN2CCOCC2)cc1,16.1%
8,COc1cc(Cl)cc(CN2CCC(CCC(=O)NC3CC3)CC2)c1OC,8.95%
9,NC(=O)NC(=O)CN1C(=O)NC2(CCOc3ccccc32)C1=O (stereo not drawn),6.17%
10,Cc1ccc(C)c(S(=O)(=O)N2CCN(C(=O)c3cccnc3)CC2)c1,7.12%
11,COc1cc(Cl)ccc1OCc1cc(C(=O)N(C)C2CCOC2)no1 (stereo not drawn),13.2%
12,CCCS(=O)(=O)c1ccc(COC(=O)c2cccc(NC(=O)C(C)C)c2)cc1,3.65%
13,Cc1c(/C=N/N=C2\CCC3C4CCc5cc(O)ccc5C4CCC23C)cnn1C (stereo not drawn),4.56%
14,C=CCNC(=O)c1cc(-c2ccc3c(c2)OCO3)on1,10.5%
15,CCOC(=O)N1CCN(CCC(=O)c2ccc(OC)cc2)CC1.Cl,-2.21%
16,CCSc1nnc(Cc2cc(=O)[nH]c(=O)[nH]2)n1-c1cccc(C)c1,7.26%
17,CC(=O)c1cccc(S(=O)(=O)NCCC(=O)NC2CCCCCC2)c1,8.68%
18,CC(C)c1ccc(N=Nc2c(O)[nH]c(=O)[nH]c2=O)cc1,11.2%
19,CN1CCN(C(=O)CCc2ncc(C(F)(F)F)cc2Cl)CC1,12%
